Assay results reported in PubChem BioAssay AID651820 (National Center for Advancing Translational Sciences (NCATS), 2012).
Out of some 340,000 compounds screened, about 12,000 (3.5%) were called active. The inconclusive results got no clear call from the source; some entries with a clear call stand among them for comparison. Calls follow the shape of the dose curve; as a rule, active = well fitted inhibition curve with a large enough effect; inconclusive = small, poorly fitted or top-dose-only effect, or another doubt; inactive = no such curve, though single readings can be large or run the other way. Potencies of inconclusive entries are left out as doubtful fits.

assay: qHTS Assay for Inhibitors of Hepatitis C Virus (HCV); conditions: Huh7.5.1 HCVcc-Cre (HCVcc is cell-culture hepatitis C virus) infection, luciferase reporter, 44 h; activity change, negative = inhibition: at 41.8 µM (top of the series) unless noted
Method in brief: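 A cell-based infection assay in which seeded cells (1,000 per well) receive test compound after 4 h, are inoculated with HCVcc-Cre at approximately 0.5 moi, and are incubated 44 h before luminescence detection.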
% is scaled to controls: 0 for no effect and ±100 for the full control effect; potency is read from the fitted curve at half-maximal effect; tags tell the direction and shape of the fitted curve.

Row | SMILES | Potency | activity change, negative = inhibition
1 | CCOc1ccccc1C(=O)Nc1nncs1 | inconclusive [inhibitor, partial curve] | 
2 | O=C(Nc1ccc(F)cc1)c1ccc(NC(=O)C2CCCO2)cc1 (centres undefined) |  | inactive: -21.8%
3 | CCCCCNc1nc(N2CCCC2)c2c(c1C#N)CCN(C)C2 | inconclusive [inhibitor, single point] | 
4 | Cc1cc2c3c([nH]c2cc1S(=O)(=O)NCc1ccc(CN2CCCCCC2)o1)CC(C)(C)CC3=O | inconclusive [inhibitor, single point] | 
5 | CCS(=O)(=O)c1c([N+](=O)[O-])ncn1C | inconclusive [inhibitor, single point] | 
6 | CC(C)(C)OC(=O)C[C@@H]1C/C=C\C[C@H](CC(=O)N(CCO)Cc2ccccc2)C(=O)N[C@@H](c2ccccc2)COC1=O |  | inactive: -3.7%
7 | COC(=O)c1sccc1NC(=O)c1ccc(C(C)C)cc1 |  | inactive: 15.5%
8 | COc1ccc(C(=O)OCC(=O)NCCN2C(=O)CSC2=O)cc1 |  | inactive: 0.111%
9 | Cc1nn(-c2ccc(F)cc2)c(Cl)c1/C=C/C(=O)OCC(=O)Nc1c(F)c(F)c(F)c(F)c1F | inconclusive [inhibitor, single point] | 
10 | CN(C)C(=S)c1ccc(N(C)C)cc1 |  | inactive: 30.8%
11 | COc1cc(Cc2nc3ccc(S(=O)(=O)N4CCOCC4)cc3[nH]2)cc(OC)c1OC | inconclusive [inhibitor, partial curve, poor fit] | 
12 | COC(=O)/C=C1\N/C(=N/c2nc(C)c3cc(OC)ccc3n2)NC1=O | inconclusive [inhibitor, single point] | 
13 | Cc1cccc(C(=O)Nc2ccn(C)n2)c1 |  | inactive: 9.36%
14 | CCOC(=O)[C@H]1[C@H]2COc3cc(OC)ccc3[C@@H]2N2C(=O)c3ccc(C)cc3NC(=O)[C@@]12C |  | inactive: -21.5% [at 8.37 µM]
15 | CCOC(=O)c1c(NC(=O)c2nn(CC)cc2Br)sc(C)c1C | inconclusive [inhibitor, partial curve, poor fit] | 
16 | N=c1c2c3c(sc2nc2n1CCCCC2)CCCCC3 | inconclusive [inhibitor, single point] | 
17 | O=C(NCC1CCN(c2ccc(S(=O)(=O)N3CCOCC3)cc2)CC1)c1ccc(Cl)cc1 | inconclusive [inhibitor, single point] | 
18 | Cc1ccc(OCC(=O)N(Cc2ccco2)c2c(N)n(Cc3ccccc3)c(=O)[nH]c2=O)cc1C | inconclusive [inhibitor, partial curve] | 
19 | CCOC(=O)c1sc2nccc(N(C)C)c2c1N=CNOC | inconclusive [inhibitor, partial curve] | 
20 | Cc1cc(C)c2nc(-c3ccccn3)cc(C(=O)NCc3cc(C)n(C)n3)c2c1 | inconclusive [inhibitor, single point] | 
21 | CC(C)(C)OC(=O)NCCCCCNC(=O)c1nc[nH]c1C(=O)N1CCc2ccccc2C1 |  | inactive: 10.7%
22 | CCN(CC)S(=O)(=O)c1cccc(NC(=O)c2cccc(S(=O)(=O)N3CCCC3)c2)c1 | inconclusive [inhibitor, partial curve] | 

Row | SMILES | Potency | activity change, negative = inhibition
23 | Cc1c(O)ccc2c(-c3ccccc3)cc(=O)oc12 |  | inactive: -9.27%
24 | O=[N+]([O-])c1cccc(-c2n[nH]c(=S)n2-c2ccccc2)c1 |  | inactive: 16.1%
25 | Cc1nn2c(N3CCCC3)cc(C(C)C)nc2c1-c1ccccc1 | active: 14.1 µM | 
26 | Cc1ccc2nc(-c3ccccn3)[nH]c2c1 |  | inactive: -29.7%
27 | CC1=NN(c2nc(-c3ccc(C)cc3)cs2)C(=O)C1N=Nc1ccccc1O (centres undefined) | active: 10 µM | 
28 | COc1cc(/C=N/NC(=O)c2cc3ccccc3cc2O)ccc1OCCN1CCCCC1 | inconclusive [inhibitor, single point] | 
29 | CCOc1ccc(C(=O)COC(=O)c2c(-c3ccccc3)noc2C)cc1 | inconclusive [inhibitor, partial curve] | 
30 | COc1cc(NC(=O)C(C)Oc2ccccc2)c(OC)cc1NC(=O)c1ccccc1 (centres undefined) | inconclusive [inhibitor, partial curve, poor fit] | 
31 | CSc1ccc(CN2CCCC(N3CCN(c4ccccc4)CC3)C2)cc1 (centres undefined) | inconclusive [inhibitor, single point] | 
32 | CN(Cc1ccccc1)C1=CC(=[N+]2CCCCC2)CC(C)(C)C1 | active: 2.82 µM | 
33 | COc1ccc(-c2cc(C(=O)N3CCN(c4ccccc4)CC3)c3ccccc3n2)cc1OC | inconclusive [inhibitor, partial curve] | 
34 | CCOC(=O)c1c(C)[nH]c(C(=O)OCC(=O)NCc2ccc(OC)c(OC)c2)c1C | active: 10 µM | 
35 | O=S(=O)(c1ccc(Oc2ccc3oc4ccccc4c3c2)nc1)N1CCCC1 | inconclusive [inhibitor, partial curve, poor fit] | 
36 | N#CC1=C(N)N2C(=C(C#N)C1c1cccc(Br)c1)Nc1ccccc12 (centres undefined) | inconclusive [inhibitor, single point] | 
37 | CC(C)(C)C(=O)NC(=S)NNC(=O)c1ccc(-c2ccccc2)cc1 | active: 6.31 µM | 
38 | COc1ccc(C2=NN(C(C#N)c3ccc(OC)cc3)C(c3ccccc3)C2)cc1 (centres undefined) | inconclusive [inhibitor, single point] | 
39 | Cc1ccccc1OCC(=O)Nc1ccccc1N1CCOCC1 | inconclusive [inhibitor, single point] | 
40 | Cc1ccnc2nc(C(=O)OCC(=O)c3ccc(NC(=O)CC(C)C)cc3)nn12 | inconclusive [inhibitor, single point] | 
41 | O=C(NC(=S)N1C[C@H]2C[C@H](C1)c1cccc(=O)n1C2)c1ccc(Cl)cc1 |  | inactive: 8.2%
42 | COc1ccc(C(=O)NC(C)CCc2ccccc2)cc1[N+](=O)[O-] (centres undefined) | inconclusive [inhibitor, single point] | 
43 | CCOc1ccc(S(=O)(=O)N2CCC(C(=O)NCC3CCCO3)CC2)cc1C (centres undefined) |  | inactive: 2.95%
44 | CCOc1cc(C(=O)NC)cc(Br)c1OCc1ccccc1 | inconclusive [inhibitor, single point] | 
